# The list shows a part of the results.
# B1: AFL5 (Aspergillus fumigatus), Q4WB00 (protein)
# chain: MDNFMEMTKKLGHQPELLRLRALDATYDDALEGKLVVAPLDMSEPGKKILDSGTADGTWLRNVRSKQSVPHDYYGSDVEGELFPKDPDGITYFAHSFKDPWPQQYLGFFDLVHIRGSLAGSAPEGPAPVIQNLTTLLKPGGWVQLMEMNAFSPPPNGPAMTDFAKMASEMFTGIGVGDFANNNKSMLEDAGLKNVQEKRVIVNLGKKAKPELHDQSIHGVTGPIVPLTSVARTVKSSFTGEQLDALPARVKEELETEGGQVEMIIAFGQKA
# Experiments:
# Assay in all cases: glycan array binding signal (z-score within array); higher = stronger binding
# Conditions in all cases: glycan notation: IUPAC condensed, linker removed
# [1] = molecular target: Man(a1-3)[Man(a1-6)]Man(a1-6)[Man(a1-2)Man(a1-3)]Man(b1-4)GlcNAc(b1-4)GlcNAc
# Outline: (§1)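 Glycan array data came from 3228 arrays in the Consortium for Functional Glycomics database, and only arrays with an available protein sequence were kept. Glycan names were put into IUPAC-condensed notation, and columns mapping to the same glycan were averaged. The binding signal is a within-array Z-score, averaged across arrays of one protein sequence run at different concentrations or buffers and across linkers. A negative Z-score can be read as non-binding.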
# [2] = molecular target: Man(a1-3)[Man(a1-6)]Man(a1-6)[Man(a1-3)]Man
# Outline: as §1
# [3] = molecular target: Man(a1-3)[Man(a1-6)]Man(a1-6)[Man(a1-3)]Man(b1-4)GlcNAc(b1-4)GlcNAc
# Outline: as §1
# [4] = molecular target: Man(a1-3)[Man(a1-6)]Man(b1-4)GlcNAc(b1-4)GlcNAc
# Outline: as §1
# [5] = molecular target: Man(a1-3)[Man(a1-6)]Man(b1-4)GlcNAc(b1-4)[Fuc(a1-6)]GlcNAc
# Outline: as §1
# Man(a1-6)Man = molecular target: Man(a1-6)Man
# Outline: as §1
# Man(b1-4)GlcNAc = molecular target: Man(b1-4)GlcNAc
# Outline: as §1
# MurNAc(b1-4)GlcNAc = molecular target: MurNAc(b1-4)GlcNAc
# Outline: as §1
# Neu5Ac(a2-3)Gal = molecular target: Neu5Ac(a2-3)Gal
# Outline: as §1
# [6] = molecular target: Neu5Ac(a2-3)Gal(b1-3)GalNAc
# Outline: as §1
# [7] = molecular target: Neu5Ac(a2-3)Gal(b1-3)GalNAc(b1-3)Gal(a1-4)Gal(b1-4)Glc
# Outline: as §1
# [8] = molecular target: Neu5Ac(a2-3)Gal(b1-3)GalNAc(b1-4)Gal(b1-4)Glc
# Outline: as §1
# [9] = molecular target: Neu5Ac(a2-3)Gal(b1-3)GalNAc(b1-4)[Neu5Ac(a2-3)]Gal(b1-4)Glc
# Outline: as §1
# [10] = molecular target: Neu5Ac(a2-3)Gal(b1-3)GalNAc(b1-4)[Neu5Ac(a2-8)Neu5Ac(a2-3)]Gal(b1-4)Glc
# Outline: as §1
# [11] = molecular target: Neu5Ac(a2-3)Gal(b1-3)GalNAc6S
# Outline: as §1
# [12] = molecular target: Neu5Ac(a2-3)Gal(b1-3)GlcNAc
# Outline: as §1
# [13] = molecular target: Neu5Ac(a2-3)Gal(b1-3)GlcNAc(b1-2)Man
# Outline: as §1
# [14] = molecular target: Neu5Ac(a2-3)Gal(b1-3)GlcNAc(b1-2)Man(a1-3)[GlcNAc(b1-4)][Neu5Ac(a2-3)Gal(b1-3)GlcNAc(b1-2)Man(a1-6)]Man(b1-4)GlcNAc(b1-4)GlcNAc
# Outline: as §1
# [15] = molecular target: Neu5Ac(a2-3)Gal(b1-3)GlcNAc(b1-2)Man(a1-3)[Neu5Ac(a2-3)Gal(b1-3)GlcNAc(b1-2)Man(a1-6)]Man(b1-4)GlcNAc(b1-4)GlcNAc
# Outline: as §1
# [16] = molecular target: Neu5Ac(a2-3)Gal(b1-3)GlcNAc(b1-2)[Neu5Ac(a2-3)Gal(b1-3)GlcNAc(b1-4)]Man(a1-6)[Neu5Ac(a2-3)Gal(b1-3)GlcNAc(b1-2)Man(a1-3)]Man(b1-4)GlcNAc(b1-4)GlcNAc
# Outline: as §1
# [17] = molecular target: Neu5Ac(a2-3)Gal(b1-3)GlcNAc(b1-3)Gal(b1-3)GlcNAc
# Outline: as §1
# [18] = molecular target: Neu5Ac(a2-3)Gal(b1-3)GlcNAc(b1-3)Gal(b1-4)GlcNAc
# Outline: as §1
# [19] = molecular target: Neu5Ac(a2-3)Gal(b1-3)GlcNAc(b1-3)GalNAc
# Outline: as §1
# [20] = molecular target: Neu5Ac(a2-3)Gal(b1-3)GlcNAc(b1-6)GalNAc
# Outline: as §1
# [21] = molecular target: Neu5Ac(a2-3)Gal(b1-3)GlcNAc6S
# Outline: as §1
# [22] = molecular target: Neu5Ac(a2-3)Gal(b1-3)[Fuc(a1-4)]GlcNAc
# Outline: as §1
# [23] = molecular target: Neu5Ac(a2-3)Gal(b1-3)[Fuc(a1-4)]GlcNAc(b1-3)Gal(b1-3)[Fuc(a1-4)]GlcNAc
# Outline: as §1
# [24] = molecular target: Neu5Ac(a2-3)Gal(b1-3)[Fuc(a1-4)]GlcNAc(b1-3)Gal(b1-4)[Fuc(a1-3)]GlcNAc
# Outline: as §1
# [25] = molecular target: Neu5Ac(a2-3)Gal(b1-3)[GlcNAc(b1-6)]GalNAc
# Outline: as §1
# [26] = molecular target: Neu5Ac(a2-3)Gal(b1-3)[Neu5Ac(a2-6)]GalNAc
# Outline: as §1
# [27] = molecular target: Neu5Ac(a2-3)Gal(b1-3)[Neu5Ac(a2-6)]GlcNAc(b1-3)[Fuc(a1-3)[Gal(b1-4)]GlcNAc(b1-6)]Gal(b1-4)Glc
# Outline: as §1
# [28] = molecular target: Neu5Ac(a2-3)Gal(b1-3)]Neu5Ac(a2-3)Gal(b1-4)]GlcNAc
# Outline: as §1
# Neu5Ac(a2-3)Gal(b1-4)Glc = molecular target: Neu5Ac(a2-3)Gal(b1-4)Glc
# Outline: as §1
# [29] = molecular target: Neu5Ac(a2-3)Gal(b1-4)GlcNAc
# Outline: as §1
# [30] = molecular target: Neu5Ac(a2-3)Gal(b1-4)GlcNAc(b1-2)Man
# Outline: as §1
# [31] = molecular target: Neu5Ac(a2-3)Gal(b1-4)GlcNAc(b1-2)Man(a1-3)[GlcNAc(b1-4)][Neu5Ac(a2-3)Gal(b1-4)GlcNAc(b1-2)Man(a1-6)]Man(b1-4)GlcNAc(b1-4)GlcNAc
# Outline: as §1
# [32] = molecular target: Neu5Ac(a2-3)Gal(b1-4)GlcNAc(b1-2)Man(a1-3)[Neu5Ac(a2-3)Gal(b1-4)GlcNAc(b1-2)Man(a1-6)]Man(b1-4)GlcNAc(b1-4)GlcNAc
# Outline: as §1
# [33] = molecular target: Neu5Ac(a2-3)Gal(b1-4)GlcNAc(b1-2)Man(a1-3)[Neu5Ac(a2-3)Gal(b1-4)GlcNAc(b1-2)Man(a1-6)]Man(b1-4)GlcNAc(b1-4)[Fuc(a1-6)]GlcNAc
# Outline: as §1
binder,measurement,setting,value
B1,glycan array binding signal (z-score),[1],0.508
same,glycan array binding signal (z-score),[2],0.01
same,glycan array binding signal (z-score),[3],-0.14
same,glycan array binding signal (z-score),[4],-0.485
same,glycan array binding signal (z-score),[5],0.252
same,glycan array binding signal (z-score),Man(a1-6)Man,0
same,glycan array binding signal (z-score),Man(b1-4)GlcNAc,-0.187
same,glycan array binding signal (z-score),MurNAc(b1-4)GlcNAc,0.25
same,glycan array binding signal (z-score),Neu5Ac(a2-3)Gal,-0.081
same,glycan array binding signal (z-score),[6],-0.027
same,glycan array binding signal (z-score),[7],-0.212
same,glycan array binding signal (z-score),[8],-0.506
same,glycan array binding signal (z-score),[9],-0.331
same,glycan array binding signal (z-score),[10],0.202
same,glycan array binding signal (z-score),[11],-0.456
same,glycan array binding signal (z-score),[12],0.03
same,glycan array binding signal (z-score),[13],-0.697
same,glycan array binding signal (z-score),[14],-0.491
same,glycan array binding signal (z-score),[15],-0.136
same,glycan array binding signal (z-score),[16],0.712
same,glycan array binding signal (z-score),[17],-0.729
same,glycan array binding signal (z-score),[18],-0.364
same,glycan array binding signal (z-score),[19],-0.226
same,glycan array binding signal (z-score),[20],0.328
same,glycan array binding signal (z-score),[21],-0.33
same,glycan array binding signal (z-score),[22],-0.235
same,glycan array binding signal (z-score),[23],0.57
same,glycan array binding signal (z-score),[24],-0.176
same,glycan array binding signal (z-score),[25],-0.184
same,glycan array binding signal (z-score),[26],-0.393
same,glycan array binding signal (z-score),[27],0.688
same,glycan array binding signal (z-score),[28],0.099
same,glycan array binding signal (z-score),Neu5Ac(a2-3)Gal(b1-4)Glc,0.072
same,glycan array binding signal (z-score),[29],-0.07
same,glycan array binding signal (z-score),[30],0.737
same,glycan array binding signal (z-score),[31],0.146
same,glycan array binding signal (z-score),[32],-0.219
same,glycan array binding signal (z-score),[33],-0.015

# — the supplement of paper PMC8728848
